# From PubChem BioAssay AID1832 (Broad Institute, 2009)
# About 1,100 (0.37%) of roughly 300,000 compounds were called active. The inconclusive results got no clear call from the source; some entries with a clear call stand among them for comparison.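 Rule for the calls: active = inhibition past about -25% in most replicates, and total fluorescence under double the plate's negative control median (limit read from the data); inconclusive = replicates evenly split on the limit, or fluorescence at least double controls; inactive = too little inhibition in most replicates.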
# Molecular target: Zinc finger protein mex-5 (Caenorhabditis elegans) (UniProt Q9XUB2)
# Sequence of UniProt Q9XUB2 (Q9XUB2 whole entry, looked up): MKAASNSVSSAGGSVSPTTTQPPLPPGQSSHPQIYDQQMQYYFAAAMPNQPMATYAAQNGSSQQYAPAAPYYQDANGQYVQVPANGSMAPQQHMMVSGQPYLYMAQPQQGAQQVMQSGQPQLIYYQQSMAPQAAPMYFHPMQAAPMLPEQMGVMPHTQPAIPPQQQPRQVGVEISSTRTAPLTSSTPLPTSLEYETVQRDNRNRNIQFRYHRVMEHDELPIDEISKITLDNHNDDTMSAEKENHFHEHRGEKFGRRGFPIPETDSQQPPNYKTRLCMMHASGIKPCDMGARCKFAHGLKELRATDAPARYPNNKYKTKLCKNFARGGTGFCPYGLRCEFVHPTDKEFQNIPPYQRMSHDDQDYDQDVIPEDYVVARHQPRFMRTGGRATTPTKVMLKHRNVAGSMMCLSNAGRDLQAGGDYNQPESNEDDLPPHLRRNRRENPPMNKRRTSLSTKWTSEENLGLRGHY
# Assay: MEX-5 zinc finger RNA-binding disruptors – biochemical, C. elegans, fluorescence polarization, MLPCN library, primary screen (AID 1832);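 note: 0% = DMSO and -100% = 5 µM competing unlabeled TCR2 RNA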
# Details: MEX-5/FITC-TCR2 RNA binding, at 10 µM, stronger effect = lower value
row,SMILES,activity score (negative = inhibition of binding)
1,CCC1=NN2C(=N)/C(=C\c3ccc(SCc4ccco4)o3)C(=O)N=C2S1,active: -31.7%
2,CCOC(=O)/C(C#N)=C/c1ccc(-c2ccsc2C(=O)OC)o1,active: -54.7%
3,COc1cc2c(cc1/C=C1/NC(=O)N(c3ccccc3)C1=O)OCO2,active: -27%
4,Oc1ccc2ccc3cccc[n+]3c2c1,inconclusive: -161% [fluorescent]
5,C=CCn1c(=O)/c(=C/c2cc(OC)c(OC)c(OC)c2)s/c1=C(/C#N)c1nc2ccccc2n1C,inconclusive: -101% [fluorescent]
6,COc1cc([N+](=O)[O-])cc(/C=N/NC(=O)CC#N)c1O,active: -31.8%
7,Cc1cc(C)c2c(N)c(C(=O)c3cccc(Cl)c3)sc2n1,inactive: 3.91%
8,O=C(c1ccccc1)c1ccc(O)cc1O,inconclusive: -126% [fluorescent]
9,O=C(O)C(c1ccccc1)N1C(=O)/C(=C\c2ccc(-c3cccc(Cl)c3)o2)SC1=S (configuration not stated),inconclusive: -101% [fluorescent]
10,Cn1nc(-c2ccccc2)c2nc3ccccc3nc21,inconclusive: -117% [fluorescent]
11,Cc1ccccc1Nc1nc(Cl)c(C=O)s1,active: -40.8%
12,Cc1ccc(S(=O)(=O)N2CCCCC2C(=O)O)s1 (configuration not stated),inactive: 1.41%
13,O=C(Cc1ccccc1)Nc1ccc(N2CCOCC2)cc1N1CCOCC1,inconclusive: -15.5%
14,CCn1nc(C)c(/C=C2\CCCC3=C2OC(N)=C(C#N)C3c2c(C)nn(CC)c2C)c1C (configuration not stated),inconclusive: -24.2%
15,Cc1cc2nc3c(=O)[nH]c(=S)[nH]c3nc2cc1NC(=O)C(F)(F)F,inconclusive: -80.4% [fluorescent]
16,Nc1cc(S(=O)(=O)O)cc([N+](=O)[O-])c1O,inconclusive: -20.9%
17,CCOCCCn1c(=NC(=O)c2ccc(OC)c(OC)c2)c(C#N)cc2c(=O)n3cccc(C)c3nc21,inconclusive: -14.8%
18,CCN(CC(=O)NCc1ccc(Cl)cc1)C(=O)c1cccc(S(=O)(=O)Nc2ccc(OC)cc2)c1,inactive: -0.644%
19,CCN(CC)c1ccc2cc(-c3nnc(-c4ccccc4)o3)c(=O)oc2c1,inconclusive: -89% [fluorescent]
20,CCOc1ccc(NC2=CC(=O)CC(c3ccco3)C2)cc1 (configuration not stated),inactive: 0.0519%
21,COCCCNc1nc2nonc2nc1N1CCN(Cc2cccc(C)c2)CC1,inactive: -9.71%

row,SMILES,activity score (negative = inhibition of binding)
1,CCN(CC)c1ccc2cc(C(N)=O)c(=N)oc2c1,inconclusive: 9.68% [fluorescent]
2,N#C/C(=C/c1ccc(N2CCOCC2)o1)C(=O)N1CCOCC1,inconclusive: 69.8% [fluorescent]
3,CCn1c(=N)c(S(=O)(=O)c2ccccc2)cc2c(=O)n3ccccc3nc21,inconclusive: -13.9%
4,CC(=O)c1c(C)[nH]c(-c2ccccc2)nc1=S,inactive: 0.205%
5,O=C(Cn1c(=O)oc2ccccc21)Nc1ccc(F)cc1,inactive: 0.172%
6,OCCOc1ccc(C2=NCCO2)cc1,active: -49.8%
7,CCN1CC=C2C(C1)C(c1ccc(Cl)s1)C(C#N)=C(N)C2(C#N)C#N (configuration not stated),inconclusive: -90.8% [fluorescent]
8,CCOc1cc(Br)c(/C=C2/C(=O)N(C)C(=S)N2CC(=O)OC)cc1OC,active: -31.8%
9,Cc1ccc(S(=O)(=O)/N=C(\N)Nc2nc(C)c3cc(C)c(C)cc3n2)cc1,inactive: 1.48%
10,CCc1cc(=O)oc2c(C)c(O)c(CN3CCCCC3)cc12,inactive: -0.549%
11,O=C(N/N=C/c1cc2c(cc1Cl)OCO2)c1ccccn1,inconclusive: -25.4% [fluorescent]
12,C#CCN1C(=O)S/C(=C\c2ccc(-c3ccc(Cl)c(C(=O)O)c3)o2)C1=O,inconclusive: -25.1% [fluorescent]
13,O=S(=O)(c1ccccc1)N1CCC(O)(CSc2ccc(Cl)cc2)CC1,inconclusive: -15.2%
14,COc1ccccc1NCC(=O)N/N=C/c1c(O)ccc2ccccc12,inconclusive: -11.4%
15,O=C(Oc1ccc2ccc(=O)oc2c1)c1ccco1,inactive: 1.3%
16,O=C(O)c1ccccc1N(c1ccccc1)c1ccccc1,inconclusive: -15.4%
17,Cc1cc(F)ccc1S(=O)(=O)NCC(c1cccnc1)N1CCc2ccccc21 (configuration not stated),inactive: -0.0197%
18,O=[N+]([O-])c1ccc(O)c(C=Nc2ccc3c(c2)OCCO3)c1,inconclusive: -22.9% [fluorescent]
19,Brc1ccccc1-c1nnc(COc2ncnc3ccccc23)o1,inconclusive: 26.7% [fluorescent]
20,Cn1c(=O)c(-c2cc(=O)[nH][nH]2)c(O)c2ccccc21,active: -30.3%
21,CCN(CC)c1ccc(N=Cc2ccc(N(CC)CC)cc2O)cc1,inconclusive: -20.6%

row,SMILES,activity score (negative = inhibition of binding)
1,Cc1[nH]c(=O)[nH]c(=O)c1S(=O)(=O)N1CCN(c2ccccc2F)CC1,inactive: -0.997%
2,CN1CC=C2C(C#N)=C(N)C(C#N)(C#N)C(c3ccsc3)C2C1 (configuration not stated),inconclusive: -107% [fluorescent]
3,C=CCn1c(=S)[nH]c2nc3c(cc2c1=O)COC(C)(C)C3,inconclusive: -24.3%
4,COc1cccc2c1C(=O)c1c(O)c3c(c(O)c1C2=O)C[C@@](O)(C(=O)CO)C[C@@H]3O[C@H]1C[C@H](N)[C@@H](O)[C@H](C)O1,inconclusive: -105% [fluorescent]
5,CCOc1ccc(-c2c(C#N)c(N)nc3sc(C(=O)c4ccccc4)c(N)c23)cc1,inconclusive: -25% [fluorescent]
6,COc1ccc(N=Cc2c(O)ccc3ccccc23)cc1,inconclusive: -20.9%
7,CSc1nncc(/C(C)=N\Nc2ccccc2)n1,inconclusive: -17.1%
8,Clc1ccc(C2=CC(c3ccco3)n3ncnc3N2)cc1 (configuration not stated),active: -91.2%
9,O=C1c2cccc3c(N4CCCCC4)ccc(c23)C(=O)N1CCO,active: -25.7%
10,O=C(NCCCN1CCCC1)Nc1ccccc1[N+](=O)[O-],inactive: -1.16%
11,CSc1ncccc1C(=O)OCC(=O)c1cc2ccccc2o1,inactive: 0.265%
12,COC(=O)CC1=C(C(=O)OC)[C@@H](c2ccccc2[N+](=O)[O-])C(C#N)=C(N)O1,inactive: -4.43%
13,COc1ccc(-n2c(NNC(C)=O)nc3sc4c(c3c2=O)CCCC4)cc1,inconclusive: -17.3%
14,CCOC(=O)c1c(N2C(=O)Nc3ccccc3N2O)sc2c1CCCC2,inactive: 1.66%
15,CC1=CC2=NC(=O)/C(=C/c3coc4ccc(Cl)cc4c3=O)C(=N)N2O1,inconclusive: 4.69% [fluorescent]
16,O=C(N/N=C/c1cc(Cl)cc([N+](=O)[O-])c1O)NC12CC3CC(CC(C3)C1)C2,inactive: 2.12%
17,CC(C)Cn1c(N)c(C(=O)COC(=O)CCNS(=O)(=O)c2ccccc2)c(=O)n(C)c1=O,inactive: 1.37%
18,CCN(CC)c1ccc2c(-c3ccc(S(=O)(=O)O)cc3S(=O)(=O)[O-])c3ccc(=[N+](CC)CC)cc-3oc2c1,inconclusive: -142% [fluorescent]
19,COc1cc(C2C3CN(C)CC=C3C(C#N)=C(N)C2(C#N)C#N)ccc1OC(C)C (configuration not stated),active: -29.6%
20,COc1cc(/C=C2\SC(=S)N(NC(=O)c3ccc(O)cc3)C2=O)ccc1O,inconclusive: 50.5% [fluorescent]
21,O=c1[nH]c(CN2CCc3ccccc3C2)nc2ccccc12,inconclusive: -23.3%

row,SMILES,activity score (negative = inhibition of binding)
1,CNC(=O)/C(C#N)=C/c1ccc(-c2ccc(Cl)cc2)o1,active: -34%
2,CN(C)c1ccc(/C=C(\C#N)C(=O)c2ccccc2)cc1,inconclusive: -20.7%
3,CCOc1ccc(C2OC34CCCCC3C(C#N)(C#N)C2(C#N)C(=N)O4)cc1OC (configuration not stated),active: -29%
4,CC1=NN(C(N)=S)C(=O)C1N=Nc1ccccc1O (configuration not stated),inactive: 4.65%
5,CC1N(C)c2cccc3cccc(c23)N1C,inconclusive: -11.5%
6,COC(=O)C1=C(C)NC(=S)NC1c1ccc(-c2cccc(Cl)c2)o1 (configuration not stated),inactive: 2.95%
7,COCCNc1ccc([N+](=O)[O-])cc1C(=O)Nc1cccc(C)n1,inactive: -1.94%
8,CCN(CC)C(=O)Cn1c(C)c(/C=C/c2cc[n+](C)cc2)c2ccccc21,inconclusive: 63.5% [fluorescent]
9,COC(CNC(=O)c1ccc2c3c(onc13)-c1ccccc1C2=O)OC,inconclusive: -110% [fluorescent]
10,CCCC[n+]1ccn(C2=C([O-])c3ccccc3C(=O)/C2=N\S(=O)(=O)c2ccc(Cl)cc2)c1,inconclusive: -15.2%
11,CCCC(C)NC(=O)c1ccc(C2SCC(=O)N2Cc2ccco2)cc1 (configuration not stated),inconclusive: -23.6%
12,CCN1/C(=C\c2ccc3ccccc3[n+]2CC)Sc2cc(C)ccc21,inconclusive: 36.1% [fluorescent]
13,CCOC(=O)C1CCN(C(=O)c2ccc3c(c2)NC(=O)/C(=C\c2ccc(C)cc2)S3)CC1,inconclusive: -12.1%
14,Cc1cc(C)n2[nH]c(=O)c(N=Nc3cccc(Cl)c3)c2n1,inconclusive: -5.77% [fluorescent]
15,O=Cc1ccc2noc(-c3ccc(F)cc3)c2c1,inconclusive: -90.6% [fluorescent]
16,CC1=CC2=NC(=O)/C(=C\c3ccc(-c4cccc(Cl)c4)o3)C(=N)N2O1,inactive: -18.6%
17,CN(C)CCCN(C(=O)/C=C/c1cccs1)c1nc2ccc(F)cc2s1,inconclusive: -23.3%
18,CCOC(=O)N1CCN(CC(=O)c2ccc(O)cc2O)CC1,inconclusive: -22.6%
19,CCOc1ccc(/C=C/C(=O)Nc2ccc(OC)cc2[N+](=O)[O-])cc1,inconclusive: -97.7% [fluorescent]
